The values that follow come from ChEMBL document CHEMBL4888484, “Replenishing the malaria drug discovery pipeline: Screening and hit evaluation of the MMV Hit Generation Library 1 (HGL1) against asexual blood stage Plasmodium falciparum ,using a nano luciferase reporter read-out” (2022).

Screen size: about 150,000 compounds; about 540 (0.36%) showed an effect of 50% or more. This is one part of the list.

This assay has as its system Plasmodium falciparum. Put plainly: Primary screen in NF54 nanoGlo assay, in single point, at 2uM, 72h; a lower Z score goes with more inhibition. In kind it is functional, Erythrocyte. The note with it: timepoint 72 hour.
Regarding `CCc1cc(CNC(=O)N[C@@H](C)COCC(C)C)[nH]n1`, the “% Inhibition” value is given as -32% and the Z score was 2.92.
Taken in the same sequence, the figures for `Cn1cc(C2CC2C(=O)NS(=O)(=O)c2ccc(F)cc2)cn1` (centres undefined) were -8% and 1.47.
The corresponding values for `N#C[C@@]1(C(=O)N2CCOc3cc(Cl)c(Cl)cc32)CC12CCCC2` are 17% and -2.16.
The corresponding values for `CC(C)CN1CCOc2ccccc2[C@@H]1C(=O)O` are 2% and -0.4.
As to `CO[C@H]1COC[C@@H]1NS(=O)(=O)c1cc(-c2cc(C(F)(F)F)on2)ccc1C`, the “% Inhibition” value stood at 9% and the Z score was -1.77.
The corresponding values for `CN(Cc1ccc2c(c1)OCCO2)c1cccc(CC(=O)O)c1` are -11% and 1.1.
Taken in the same sequence, the figures for `CCC(=O)Nc1ccc(C)cc1-c1nc2ccccc2n(Cc2ccccc2)c1=O` were -4% and 0.84.
The corresponding values for `CC(C)[C@H](C)NC(=O)c1cc(-c2ccc(C3CCCCC3)cc2)on1` are -4% and 0.61.
Turning to `O=C(NCc1ccc(N2CCCC2)cc1)c1cc(F)c(O)c(Cl)c1`, the “% Inhibition” value turned out to be 4% and the Z score is reported as -0.47.
Taken in the same sequence, the figures for `CCS(=O)(=O)CCN1C(=O)C2CC3CCCCC3N2C1=O` (centres undefined) were -7% and 1.21.
For the compound `CN(CC(N)=O)S(=O)(=O)c1ccc(C#N)cc1`, the “% Inhibition” value came to 0% and the Z score turned out to be 0.07.
Taken in the same sequence, the figures for `CC(C)=CCO[C@H]1COCC[C@@H]1NC(=O)c1c(C)nc2ncccn12` were -6% and 0.83.
The corresponding values for `CCC[C@H]1CN(C(=O)CCc2c(C)nn(C)c2C)C[C@@H]1NS(C)(=O)=O` are -11% and 2.26.
The corresponding values for `Cc1cccc(NC(=O)c2nn[nH]c2NS(=O)(=O)c2ccccc2)c1` are -11% and 1.52.
In the case of `CCn1nc(C(=O)Nc2ccccc2)cc1-c1ccsc1`, the “% Inhibition” value is -3% and the Z score worked out at 0.62.
Consider `CCc1nnsc1C(=O)NCc1ccco1`, for which the “% Inhibition” value was -10% and the Z score is listed as 1.61.
For `Cc1ccc(S(=O)(=O)Nc2cccc(Oc3ncccc3C(=O)NC(C)C)c2)cc1`, the “% Inhibition” value is reported as -11% and the Z score was 1.69.
Taken in the same sequence, the figures for `COc1cc(CN2CCN(C(=O)c3ccns3)CC2)cc(OC)c1` were -12% and 1.35.
The corresponding values for `CCN(CC)c1ccc(C(=O)Nc2ccc3c(c2)OCCCO3)c(O)c1` are 4% and -0.58.
Taken in the same sequence, the figures for `CC(C)(CNC(=O)N1CCN(c2nccs2)CC1)N1CCOCC1` were -3% and 0.44.
`Cc1ncsc1C(=O)N(CC1CCN(C2Cc3ccccc3C2)CC1)C[C@H]1CCCO1`: the “% Inhibition” value is -10% and the Z score came to 1.11.
Taken in the same sequence, the figures for `COCCCN1C(=O)C2C(Cc3ccc(O)cc3)NC3(C(=O)Nc4ccccc43)C2C1=O` (centres undefined) were 4% and -0.46.
Taken in the same sequence, the figures for `CC[C@@H](C(=O)N(CC)c1cccc(C)c1)n1nc(-c2ccc(OC)cc2)c2c(C)onc2c1=O` were 13% and -1.27.
Taken in the same sequence, the figures for `COc1ccc(C)c2sc(N(Cc3ccccc3)C(=O)c3ccn(C)n3)nc12` were -10% and 1.73.
For the compound `Cc1cc(NS(C)(=O)=O)cnc1N1CCCCC1`, the “% Inhibition” value is reported as -6% and the Z score is 0.87.
Take `Cc1ccc(-c2nc(C)c(C)c(N3CCN(S(=O)(=O)c4ccc5ccccc5c4)CC3)n2)cc1`: the “% Inhibition” value is on record as -11% and the Z score was found to be 1.74.
The corresponding values for `CN(C)c1cccc(-c2nc([C@H]3CCOC3)nn2CC(F)(F)F)c1` are -14% and 1.79.
Taken in the same sequence, the figures for `Cn1ccnc(NCc2nnc3n2CCCCC3)c1=O` were 6% and -0.77.
Regarding `Cc1noc(C)c1S(=O)(=O)Nc1cccnc1-n1cccn1`, the “% Inhibition” value worked out at 11% and the Z score is on record as -1.24.
Taken in the same sequence, the figures for `O=C(Nc1c(F)cccc1F)N1C[C@H]2CC[C@H]1C2` were -11% and 2.18.
Taken in the same sequence, the figures for `COc1ccc(NC(=O)c2nnc([C@H]3CCCN(C(=O)Nc4ccc(F)c(Cl)c4)C3)s2)cc1` were -15% and 2.26.
Taken in the same sequence, the figures for `COCCN(C)c1ccc(NCc2c[nH]nc2-c2cccnc2)nc1` were -7% and 0.88.
With `CCN(CC)C(=O)COc1cc(NCc2nc(C)no2)ccc1OC`, the “% Inhibition” value is recorded as -12% and the Z score is reported as 1.67.
The corresponding values for `Cc1csc([C@@H](C#N)C(=O)c2cccc3cc[nH]c23)n1` are -8% and 1.64.
Taken in the same sequence, the figures for `COc1ccc(NC(=O)c2cc(N3CCCCC3)c3cc(C)ccc3n2)cc1OC` were -8% and 0.91.
The corresponding values for `CS(=O)(=O)NCCCNC(=O)c1cncc(Br)c1` are -6% and 1.
Regarding `CC(C)(F)c1nc(CS(=O)(=O)NC2CC2)no1`, the “% Inhibition” value was found to be 1% and the Z score is recorded as -0.28.
With `O=C1NCC2(CCN(C(=O)C[C@H]3CCOC3)CC2)O1`, the “% Inhibition” value is -15% and the Z score came to 2.38.
The corresponding values for `Cc1n[nH]c2c1CCCN2Cc1ncc(C(C)(C)C)o1` are -3% and 0.41.
The corresponding values for `Cc1cc(N)nc(C)c1-c1ccc(C(=O)N[C@@H](C)Cn2cncn2)cc1` are -13% and 1.32.
Regarding `Cn1cc(CC2CN(c3ccc4nccnc4n3)C2)cn1`, the “% Inhibition” value is -9% and the Z score was 0.98.
The corresponding values for `C=CCN(C(=O)c1ccncc1)c1nc(-c2ccc(Cl)c(Cl)c2)cs1` are -2% and 0.26.
